The results in this text go back to PMC4336329 (PLoS ONE, 2015).

The campaign covered roughly 310,000 compounds. About 2,200 (0.71%) showed an effect of 50% or more. Effects have a minus sign here. The list shows a part of the results.

Chain of human ether-à-go-go-related gene (hERG) potassium channel (Q12809 whole entry, looked up): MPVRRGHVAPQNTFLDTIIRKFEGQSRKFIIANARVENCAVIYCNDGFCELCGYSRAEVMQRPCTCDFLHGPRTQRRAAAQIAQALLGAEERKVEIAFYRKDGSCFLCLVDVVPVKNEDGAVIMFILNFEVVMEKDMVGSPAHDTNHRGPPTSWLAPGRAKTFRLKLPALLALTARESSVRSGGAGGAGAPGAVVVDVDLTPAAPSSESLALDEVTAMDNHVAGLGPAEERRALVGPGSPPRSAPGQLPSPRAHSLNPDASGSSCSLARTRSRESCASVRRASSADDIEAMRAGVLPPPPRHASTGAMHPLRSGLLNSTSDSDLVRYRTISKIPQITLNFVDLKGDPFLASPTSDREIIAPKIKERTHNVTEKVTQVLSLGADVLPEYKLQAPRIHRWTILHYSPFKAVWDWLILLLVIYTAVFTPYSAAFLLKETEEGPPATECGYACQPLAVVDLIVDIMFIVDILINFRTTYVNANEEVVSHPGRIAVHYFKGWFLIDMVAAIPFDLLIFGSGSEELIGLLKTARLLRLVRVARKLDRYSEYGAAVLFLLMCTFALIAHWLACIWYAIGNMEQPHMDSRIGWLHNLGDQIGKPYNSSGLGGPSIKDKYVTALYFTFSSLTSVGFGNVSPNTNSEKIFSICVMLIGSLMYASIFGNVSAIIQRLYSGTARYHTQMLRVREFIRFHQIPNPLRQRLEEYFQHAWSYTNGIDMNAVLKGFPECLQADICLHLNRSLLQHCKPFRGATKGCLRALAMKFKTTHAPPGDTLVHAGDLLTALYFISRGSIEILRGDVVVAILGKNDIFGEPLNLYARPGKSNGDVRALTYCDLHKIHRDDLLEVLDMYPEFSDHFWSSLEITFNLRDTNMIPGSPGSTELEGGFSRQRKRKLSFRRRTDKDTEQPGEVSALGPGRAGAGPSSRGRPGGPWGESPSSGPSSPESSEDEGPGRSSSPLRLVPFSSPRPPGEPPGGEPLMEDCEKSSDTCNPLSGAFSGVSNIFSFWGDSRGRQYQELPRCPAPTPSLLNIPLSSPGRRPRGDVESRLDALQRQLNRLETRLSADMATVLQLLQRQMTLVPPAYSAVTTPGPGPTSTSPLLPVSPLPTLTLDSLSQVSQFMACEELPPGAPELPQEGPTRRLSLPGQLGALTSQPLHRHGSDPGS

This experiment concerns the target human ether-à-go-go-related gene (hERG) potassium channel (human, UniProt Q12809). The experiment is described as follows: primary screen, population patch clamp on CHO cells stably expressing hERG.
`CCCN(c1ccc(C(C)C)cc1)S(=O)(=O)c1c(C)noc1C`: the “hERG current change (%, negative = inhibition) at 1uM” value was found to be 14%.

For the compound `COc1ccc(CCn2c(O)c(C=NCCCn3ccnc3)c(=O)[nH]c2=O)cc1OC`, the “hERG current change (%, negative = inhibition) at 1uM” value came to 14.1%.

Regarding `O=C(NCCCN1CCOCC1)c1cc(-c2ccc(F)cc2)no1`, the “hERG current change (%, negative = inhibition) at 1uM” value is recorded as -1.56%.

As for `O=C1N(c2cccc(Cl)c2)C(c2ccc(Cl)cc2)N2CCCN12` (stereo not shown), the “hERG current change (%, negative = inhibition) at 1uM” value turned out to be 12.5%.

Regarding `CO/N=C/C=C1/N(C)c2ccccc2C1(C)C`, the “hERG current change (%, negative = inhibition) at 1uM” value came to 12.5%.

For the compound `Cc1ccc(-c2csc(NC(=O)C3CCN(S(=O)(=O)c4cccs4)CC3)n2)cc1`, the “hERG current change (%, negative = inhibition) at 1uM” value was 12.8%.

As for `COc1ccc2cc1Oc1ccc(cc1)C[C@H]1c3cc(c(OC)cc3CCN1C)Oc1c(O)c(OC)cc3c1[C@H](C2)N(C)CC3`, the “hERG current change (%, negative = inhibition) at 1uM” value is reported as -10.8%.

Take `Cc1cccc(C)c1NC(=O)NN(C(=O)c1ccccc1)C(C)(C)C`: the “hERG current change (%, negative = inhibition) at 1uM” value worked out at 4.55%.

With `NC(=O)CCc1c[nH]c2ccccc12`, the “hERG current change (%, negative = inhibition) at 1uM” value stood at 12.2%.

Turning to `CC(C)C(=O)Nc1nnc(COc2ccc(Cl)cc2)s1`, the “hERG current change (%, negative = inhibition) at 1uM” value came out at 13.6%.

For `CC(C)=CCc1c(O)cc(O)c2c1OC(c1ccc(O)cc1)CC2=O` (stereo not shown), the “hERG current change (%, negative = inhibition) at 1uM” value amounted to 12.7%.

With `O=C1CN(S(=O)(=O)c2cc(C(F)(F)F)ccc2Cl)CCN1`, the “hERG current change (%, negative = inhibition) at 1uM” value is -3.47%.

In the case of `COc1cc(/C=N/NC(=O)c2ccoc2C)ccc1O`, the “hERG current change (%, negative = inhibition) at 1uM” value is 13.3%.

In the case of `CN(C)C(CNC(=O)c1ccc(NS(=O)(=O)c2cccc([N+](=O)[O-])c2)cc1)c1ccco1` (stereo not shown), the “hERG current change (%, negative = inhibition) at 1uM” value worked out at 7.44%.

Regarding `COc1cc(O)cc2c1C(=O)O[C@@H](C)CCCC(=O)CCCCC2`, the “hERG current change (%, negative = inhibition) at 1uM” value was -3.14%.

With `COc1ccc(CN(CCO)CCO)cc1[N+](=O)[O-].Cl`, the “hERG current change (%, negative = inhibition) at 1uM” value came out at 14.7%.

On to `COc1ccccc1-c1nc(SCC(=O)N2CCC(C(N)=O)CC2)n[nH]1`, for which the “hERG current change (%, negative = inhibition) at 1uM” value is 15.3%.

On to `N=c1c(C(=O)NCC2CCCO2)cc2c(=O)n3ccccc3nc2n1Cc1ccc(Cl)cc1` (stereo not shown), for which the “hERG current change (%, negative = inhibition) at 1uM” value is reported as -81.9%.

Turning to `O=C(Nc1cccc(-c2csc(Nc3ccc(Cl)cc3)n2)c1)c1ccccc1`, the “hERG current change (%, negative = inhibition) at 1uM” value was 9.26%.

With `FC(F)(F)c1ccccc1/C=N/n1c(C2CCCCC2)n[nH]c1=S`, the “hERG current change (%, negative = inhibition) at 1uM” value amounted to 12.9%.

As to `NC(=O)Nc1ccc(Nc2ccccc2)cc1`, the “hERG current change (%, negative = inhibition) at 1uM” value is 2.74%.

On to `CCN(CC)C(=O)Cn1cnc([N+](=O)[O-])n1`, for which the “hERG current change (%, negative = inhibition) at 1uM” value was found to be 13.1%.

In the case of `COc1cc(OC)cc(-n2nc(C(=O)N3CC(C)CC(C)C3)c3ccccc3c2=O)c1` (stereo not shown), the “hERG current change (%, negative = inhibition) at 1uM” value is listed as -7.62%.

For the compound `CC1(C)CC(=O)C=C(Nc2cc(-c3ccccc3)[nH]n2)C1`, the “hERG current change (%, negative = inhibition) at 1uM” value is -1.2%.

Regarding `N#CCCn1cc(C(=O)Nc2ccccc2Br)c(-c2cccs2)n1`, the “hERG current change (%, negative = inhibition) at 1uM” value came out at 4.63%.

Take `CCOc1cc(/C=N/n2nnnc2N)ccc1OCc1c(C)no[n+]1[O-]`: the “hERG current change (%, negative = inhibition) at 1uM” value is on record as 6.26%.

As to `CC1CCc2ccc(F)cc2N1S(=O)(=O)c1cccs1` (stereo not shown), the “hERG current change (%, negative = inhibition) at 1uM” value turned out to be 4.77%.

As to `Cc1oc2cc([N+](=O)[O-])c(O)c([N+](=O)[O-])c2c1C(=O)c1ccc(Br)cc1`, the “hERG current change (%, negative = inhibition) at 1uM” value is on record as 9.88%.

On to `Cc1cccc(CCN(Cc2cc3cccc(C)c3[nH]c2=O)C(=O)N2CCOCC2)c1`, for which the “hERG current change (%, negative = inhibition) at 1uM” value stood at 0.739%.

On to `COc1ccc(NC(=O)c2cc(-c3ccco3)nc3ccccc23)cn1`, for which the “hERG current change (%, negative = inhibition) at 1uM” value was 9.14%.

As for `CCc1nccn1S(=O)(=O)c1ccc2ccccc2c1`, the “hERG current change (%, negative = inhibition) at 1uM” value was 17.3%.

With `CC(C)c1cc(C(=O)O)on1`, the “hERG current change (%, negative = inhibition) at 1uM” value was found to be 1.61%.

As to `O=c1[nH]c2cc(Cl)c([N+](=O)[O-])nc2[nH]1`, the “hERG current change (%, negative = inhibition) at 1uM” value amounted to 2.1%.

Consider `COc1cccc(Nc2nc(-c3sc(NC(=O)c4ccccc4)nc3C)cs2)c1`, for which the “hERG current change (%, negative = inhibition) at 1uM” value was determined as 16.3%.

Take `COc1ccccc1NC(=O)C(C)NS(=O)(=O)c1ccc(Cl)cc1` (stereo not shown): the “hERG current change (%, negative = inhibition) at 1uM” value is 13.3%.

With `CCc1c(C(=O)Nc2ccccc2)c(C)[nH]c(=S)c1C#N`, the “hERG current change (%, negative = inhibition) at 1uM” value is 15.9%.

Turning to `Nc1nonc1-n1nnc(C(=O)N/N=C/c2cccnc2)c1CSc1ccc(Cl)cc1`, the “hERG current change (%, negative = inhibition) at 1uM” value stood at 8.68%.

Consider `CC1CCN(S(=O)(=O)c2ccc(NC(=O)CCN3C(=O)C4CC=CCC4C3=O)cc2)CC1` (stereo not shown), for which the “hERG current change (%, negative = inhibition) at 1uM” value was 5.27%.

Regarding `CCNCc1cc2cc(C)ccc2[nH]c1=O`, the “hERG current change (%, negative = inhibition) at 1uM” value is reported as 10.2%.

For the compound `Cc1ccc(-n2[nH]c(C)c(C=Nc3cc(C)ccn3)c2=O)cc1`, the “hERG current change (%, negative = inhibition) at 1uM” value is on record as 7.39%.

Regarding `Cc1ccccc1NC(=O)c1ccc(NC(=O)c2ccco2)cc1`, the “hERG current change (%, negative = inhibition) at 1uM” value turned out to be 8.28%.

As to `CCC(=O)c1cn(CC(=O)Nc2c(C)cccc2C)c2ccccc12`, the “hERG current change (%, negative = inhibition) at 1uM” value is 14.4%.

`COc1cc(OC)cc(C(=O)Nn2cnnc2)c1`: the “hERG current change (%, negative = inhibition) at 1uM” value was found to be 11.2%.

Take `CC(C)CNC(=O)c1ccccc1Oc1ccccc1`: the “hERG current change (%, negative = inhibition) at 1uM” value is listed as -0.702%.

`CC(C)c1ccc(N(CC(=O)NC2CCCCC2)C(=O)CCC(=O)Nc2ccccn2)cc1`: the “hERG current change (%, negative = inhibition) at 1uM” value is recorded as 11.3%.

Consider `C=CCn1c(SCC(=O)c2cccs2)nc2sc(CC)cc2c1=O`, for which the “hERG current change (%, negative = inhibition) at 1uM” value is listed as 7.02%.

Consider `O=C(NNC(=O)C1CC(c2cccnc2)=NO1)Nc1cccc(F)c1` (stereo not shown), for which the “hERG current change (%, negative = inhibition) at 1uM” value is on record as -0.89%.

`NS(=O)(=O)c1ccc(NC(=S)N2CCN(C(=O)C3CCCO3)CC2)cc1` (stereo not shown): the “hERG current change (%, negative = inhibition) at 1uM” value came out at 2.22%.

Consider `CSCC[C@H](NC(=O)N1CCn2c1nc1ccccc12)C(=O)NCc1ccc(C)cc1`, for which the “hERG current change (%, negative = inhibition) at 1uM” value came out at 7.77%.

Consider `Brc1ccsc1/C=N/Nc1ccccc1`, for which the “hERG current change (%, negative = inhibition) at 1uM” value is recorded as 17.5%.

`COc1cccc(-c2ccc3c(N)c(C(=O)NC4CC4)sc3n2)c1`: the “hERG current change (%, negative = inhibition) at 1uM” value stood at 18.6%.

As to `COc1cc(/C=C/C(=O)O)ccc1OCc1cnc(Cl)s1`, the “hERG current change (%, negative = inhibition) at 1uM” value is recorded as 13.5%.

Consider `O=C(NC1CCCCCC1)C(=S)N1CCCC1`, for which the “hERG current change (%, negative = inhibition) at 1uM” value is 11.1%.

As for `Cc1cc(Br)cc2c(C(=O)Nc3c(C)n(C)n(-c4ccccc4)c3=O)cc(-c3cccs3)nc12`, the “hERG current change (%, negative = inhibition) at 1uM” value came to 6.96%.

Take `O=[N+]([O-])c1ccc(O)c(-c2nn[nH]n2)c1`: the “hERG current change (%, negative = inhibition) at 1uM” value was 1.26%.

`Cc1c(N=Cc2cc3c(cc2[N+](=O)[O-])OCO3)cccc1[N+](=O)[O-]`: the “hERG current change (%, negative = inhibition) at 1uM” value is 8.46%.

As for `O=c1c2c([nH]c3ccc(Br)cc13)CCCC2`, the “hERG current change (%, negative = inhibition) at 1uM” value is recorded as -0.599%.

`O=C(Nc1ccc(S(=O)(=O)Nc2ncccn2)cc1)c1ccc(S(=O)(=O)N2CCCC2)cc1`: the “hERG current change (%, negative = inhibition) at 1uM” value is 14.4%.
